Results: paper PMC7937689
No constants are given. Whether binding was seen depends on the method and setting. In cells and extracts the contact can be indirect. Some entries that bind do so weakly or less than the wild type. Where a sequence is shown, tags or fusion partners need not be part of it.

Sequences of proteins named here, by UniProt entry; tags and fusion partners are left off. A change or cut given only in a name is not applied to a line headed by its entry. A line that says so, or that is headed by a name, gives the form on record, which may keep a tag or linker.
GFP-N-ATG16L1 (Q8C0J2-3, form named): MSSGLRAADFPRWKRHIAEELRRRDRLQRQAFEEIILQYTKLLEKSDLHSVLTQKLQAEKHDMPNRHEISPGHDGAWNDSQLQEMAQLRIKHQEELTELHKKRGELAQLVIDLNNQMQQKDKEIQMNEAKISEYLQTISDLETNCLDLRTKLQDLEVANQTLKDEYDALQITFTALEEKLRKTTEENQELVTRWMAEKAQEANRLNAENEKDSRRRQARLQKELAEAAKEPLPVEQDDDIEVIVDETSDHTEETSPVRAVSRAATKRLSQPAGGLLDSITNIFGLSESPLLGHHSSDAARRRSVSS
Cherry-FLAG-ATG16L1 (Q8C0J2-3, form named): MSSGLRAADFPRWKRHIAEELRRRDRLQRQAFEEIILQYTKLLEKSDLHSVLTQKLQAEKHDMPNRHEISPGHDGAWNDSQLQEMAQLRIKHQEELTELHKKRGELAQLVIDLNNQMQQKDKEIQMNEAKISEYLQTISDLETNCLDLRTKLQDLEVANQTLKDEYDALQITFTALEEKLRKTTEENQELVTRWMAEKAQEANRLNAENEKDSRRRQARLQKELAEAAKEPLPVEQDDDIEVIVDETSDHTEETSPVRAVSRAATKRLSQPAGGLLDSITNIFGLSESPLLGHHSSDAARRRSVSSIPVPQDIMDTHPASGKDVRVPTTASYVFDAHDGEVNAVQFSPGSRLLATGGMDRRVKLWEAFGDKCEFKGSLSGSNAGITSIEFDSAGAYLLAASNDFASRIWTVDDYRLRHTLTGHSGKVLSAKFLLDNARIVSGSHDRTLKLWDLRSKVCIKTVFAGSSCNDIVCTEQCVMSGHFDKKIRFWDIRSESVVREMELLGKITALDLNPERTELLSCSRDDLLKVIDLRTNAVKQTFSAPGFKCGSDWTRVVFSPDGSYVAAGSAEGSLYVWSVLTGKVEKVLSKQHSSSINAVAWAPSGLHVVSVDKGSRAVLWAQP
UniProt Q676U5: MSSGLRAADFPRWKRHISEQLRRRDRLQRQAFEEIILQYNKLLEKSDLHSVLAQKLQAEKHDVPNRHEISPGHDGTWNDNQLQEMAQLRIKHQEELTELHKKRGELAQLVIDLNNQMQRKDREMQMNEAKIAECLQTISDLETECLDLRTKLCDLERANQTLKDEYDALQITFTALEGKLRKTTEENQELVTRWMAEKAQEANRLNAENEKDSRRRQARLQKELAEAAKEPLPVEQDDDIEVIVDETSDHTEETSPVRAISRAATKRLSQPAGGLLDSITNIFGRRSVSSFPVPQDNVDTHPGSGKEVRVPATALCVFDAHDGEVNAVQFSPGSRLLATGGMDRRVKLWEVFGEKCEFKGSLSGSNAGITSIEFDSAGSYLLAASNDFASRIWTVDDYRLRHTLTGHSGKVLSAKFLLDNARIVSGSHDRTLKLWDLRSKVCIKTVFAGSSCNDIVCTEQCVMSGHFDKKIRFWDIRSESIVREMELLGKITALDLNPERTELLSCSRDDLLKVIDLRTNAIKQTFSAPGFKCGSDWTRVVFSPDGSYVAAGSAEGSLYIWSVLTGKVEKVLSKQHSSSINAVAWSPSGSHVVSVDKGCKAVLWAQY

What was measured:
3xFLAG-SPATA33 (mouse) = biological target: T1, 3xFLAG-SPATA33 (mouse) (UniProt Q8C624); assay: co-IP; HEK293T cells transfected with p3xFLAG-SPATA33, whole cell lysate after 48 h; precipitation with anti-ATG16L1 or anti-FLAG, western blot with anti-ATG16L1 or anti-FLAG; ATG16L1 endogenous
T1 sequence: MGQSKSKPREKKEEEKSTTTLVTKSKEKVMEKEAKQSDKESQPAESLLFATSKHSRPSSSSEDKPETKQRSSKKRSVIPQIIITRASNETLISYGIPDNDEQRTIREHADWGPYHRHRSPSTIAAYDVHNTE

MYC-SPATA33 (mouse) = biological target: T2, MYC-SPATA33 (mouse) (UniProt Q8C624); assay: co-IP; HEK293T cells co-transfected with both tagged constructs, lysed after 48 h in IP buffer (50 mM Tris-HCl pH 8.0, 0.15 M NaCl, 1 mM EGTA, 0.5% NP-40); precipitation by one tag (anti-MYC, anti-FLAG or anti-GFP), western blot for the other
T2 sequence: T1 sequence

Cherry-FLAG-ATG16L1 = Cherry-FLAG-ATG16L1 (UniProt Q8C0J2); assay: as above
3xFLAG-VDAC2 = biological target: T3, 3xFLAG-VDAC2 (UniProt Q60930); assay: as above
T3 sequence: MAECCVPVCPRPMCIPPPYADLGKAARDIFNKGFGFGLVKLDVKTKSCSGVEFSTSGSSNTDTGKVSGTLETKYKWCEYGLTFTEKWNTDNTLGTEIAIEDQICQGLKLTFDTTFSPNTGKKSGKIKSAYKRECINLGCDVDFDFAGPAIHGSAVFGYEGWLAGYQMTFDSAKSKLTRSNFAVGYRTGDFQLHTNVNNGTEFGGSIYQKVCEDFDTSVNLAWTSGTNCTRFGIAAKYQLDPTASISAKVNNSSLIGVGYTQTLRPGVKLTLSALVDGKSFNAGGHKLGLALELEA

With “endogenous ATG16L1 (HEK293T) (from UniProt Q676U5 1-607)” the binding (3xFLAG-SPATA33 (mouse)) was “binds”.

With “GFP-N-ATG16L1 (from UniProt Q8C0J2-3 1-306) (domain or fragment)” the binding (MYC-SPATA33 (mouse)) was “no binding”.

“Cherry-FLAG-ATG16L1 (from UniProt Q8C0J2-3 1-623)” was tested, and the binding (MYC-SPATA33 (mouse)) was “binds”.

B1: MYC-SPATA33 (protein, UniProt Q8C624 1-132)
chain: T1 sequence
With B1 the binding (Cherry-FLAG-ATG16L1) was “binds”.

B2: GFP-SPATA33 (protein, UniProt Q8C624 1-132)
chain: T1 sequence
In the case of B2, the binding (3xFLAG-VDAC2) is reported as “binds”.

B3: GFP-N-SPATA33 (domain or fragment, UniProt Q8C624 1-60)
chain: MGQSKSKPREKKEEEKSTTTLVTKSKEKVMEKEAKQSDKESQPAESLLFATSKHSRPSSS
In the case of B3, the binding (3xFLAG-VDAC2) is reported as “no binding” and the binding (Cherry-FLAG-ATG16L1) is reported as “binds”.
